Residue numbers refer to the chain shown, from its start.
Tests used:
[1] = molecular target: T1, PIGF (UniProt P49763-2 19-149, limits assumed); test: ELISA, coated PIGF (Example 16)
T1 construct: Bought reagent; also called PLGF; placental growth factor
T1 sequence (looked up): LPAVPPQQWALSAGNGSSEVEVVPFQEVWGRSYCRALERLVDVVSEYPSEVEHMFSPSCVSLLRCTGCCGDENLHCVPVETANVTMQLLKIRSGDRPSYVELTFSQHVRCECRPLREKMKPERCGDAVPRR

[2] = molecular target: T2, VEGF-B (UniProt P49765-2 22-188, limits assumed); test: ELISA, coated VEGF-B (Example 16)
T2 construct: Bought reagent
T2 sequence (looked up): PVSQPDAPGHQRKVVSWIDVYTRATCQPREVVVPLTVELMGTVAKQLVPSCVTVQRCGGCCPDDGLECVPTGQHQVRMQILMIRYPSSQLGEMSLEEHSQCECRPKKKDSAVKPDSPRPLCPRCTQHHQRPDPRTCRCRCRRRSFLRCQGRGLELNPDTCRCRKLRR

[3] = molecular target: T3, VEGF-D (UniProt O43915 89-205, limits assumed); test: blocking ELISA, VEGF D to VEGFR2 (Example 16)
T3 construct: Bought reagent
T3 sequence (looked up): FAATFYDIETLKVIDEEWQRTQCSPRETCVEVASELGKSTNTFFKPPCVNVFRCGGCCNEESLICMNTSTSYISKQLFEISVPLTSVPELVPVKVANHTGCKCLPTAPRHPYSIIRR

[4] = molecular target: T4, VEGF-C (UniProt P49767 112-227, limits assumed); test: blocking ELISA, VEGF-C to VEGFR2 (Example 13)
T4 construct: Bought reagent
T4 sequence (looked up): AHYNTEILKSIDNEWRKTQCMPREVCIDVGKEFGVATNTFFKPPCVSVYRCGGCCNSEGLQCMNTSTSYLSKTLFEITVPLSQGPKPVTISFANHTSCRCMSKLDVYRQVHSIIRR

[5] = molecular target: T3, VEGF-D; test: blocking ELISA, VEGF-D to VEGFR2 (Example 13)
[6] = molecular target: T3, VEGF-D; test: blocking ELISA, VEGF-D to VEGFR3 (Example 13)
[7] = molecular target: T5, VEGF-A165 (UniProt P15692-4 27-191); test: blocking ELISA, VEGF A165 to VEGFR1 (Example 16)
T5 construct: Bought reagent
T5 sequence (looked up): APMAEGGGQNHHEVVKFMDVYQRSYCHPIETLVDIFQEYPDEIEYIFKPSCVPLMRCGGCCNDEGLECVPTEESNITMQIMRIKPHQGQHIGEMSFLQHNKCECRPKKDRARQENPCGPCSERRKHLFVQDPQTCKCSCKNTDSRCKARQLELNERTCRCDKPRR

[8] = molecular target: T5, VEGF-A165; test: blocking ELISA, VEGF A165 to VEGFR2 (Example 16)
[9] = molecular target: T5, VEGF-A165; test: blocking ELISA, VEGF-A165 to VEGFR1 (Example 13)
[10] = molecular target: T5, VEGF-A165; test: blocking ELISA, VEGF-A165 to VEGFR2 (Example 13)
[11] = molecular target: T1, PIGF; test: ELISA, PlGF coated, anti-human Fc-HRP, OD450
[12] = molecular target: T1, PIGF; test: ELISA, PlGF coated, anti-human Fc-HRP, OD450; remark: listed apart in the source
[13] = molecular target: T2, VEGF-B; test: ELISA, VEGF-B coated, anti-human Fc-HRP, OD450
[14] = molecular target: T2, VEGF-B; test: ELISA, VEGF-B coated, anti-human Fc-HRP, OD450; remark: listed apart in the source
[15] = molecular target: T4, VEGF-C; test: blocking ELISA: His-VEGF-C premixed with sample, binding to coated VEGFR2-Fc read with anti-His-HRP
Procedure: (§1) During the blocking period, each recombinant receptor molecule was serially diluted from high to low concentrations, mixed evenly with 100 ng/well of VEGF-C or VEGF-D (both labeled with His-tag), allowing for incubation at room temperature for 30 minutes. […] The plates were washed with PBST, then anti-polyhistidine secondary antibody conjugated with horseradish peroxidase was added to allow for incubation and binding at room temperature for 1 hour. Then the plates were washed with PBST, TMB was added for color development, terminated with 5% hydrochloric acid solution, and finally, the OD values at 450 nm were read using a microplate reader.

[16] = molecular target: T3, VEGF-D; test: ELISA binding to VEGF-D, OD450
[17] = molecular target: T6, PDGF-AA (UniProt P04085 87-211); test: SPR, PDGF coupled to chip, trap in flow
T6 construct: Bought reagent
From the text: (§2) Nevertheless, it was found in the preliminary detection experiments that PDGF family molecules (purchased from R&D Systems Inc.) were prone to produce non-specific binding in the chip, resulting in a pseudo-elevation in measured values, such that the detection could not be completed. Therefore, PDGF-AA, PDGF-AB, PDGF-BB and PDGF-CC molecules were separately loaded through a coupling reaction on a CM5 chip, followed by influx of the recombinant receptor molecules, thus effectively eliminating the impact of non-specific binding on affinity determination.

[18] = molecular target: T7, PDGF-AB (UniProt P04085 87-211; P01127 82-190); test: SPR, PDGF coupled to chip, trap in flow
T7 construct: Bought reagent
From the text: as §2

[19] = molecular target: T8, PDGF-BB (UniProt P01127 82-190); test: SPR, PDGF coupled to chip, trap in flow
T8 construct: Bought reagent
From the text: as §2

[20] = molecular target: T9, PDGF-CC (UniProt Q9NRA1 235-345); test: SPR, PDGF coupled to chip, trap in flow
T9 construct: Bought reagent
T9 sequence (Q9NRA1 235-345): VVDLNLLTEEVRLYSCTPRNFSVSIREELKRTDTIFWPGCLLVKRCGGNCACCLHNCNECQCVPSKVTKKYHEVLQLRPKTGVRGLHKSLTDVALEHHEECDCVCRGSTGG
From the text: as §2

[21] = molecular target: T4, VEGF-C; test: ELISA binding to VEGF-C, absorbance 450 nm
[22] = molecular target: T5, VEGF-A165; test: ELISA binding to VEGF-A165, absorbance 450 nm
[23] = molecular target: T1, PIGF; test: ELISA, PlGF coated, anti-human Fc-HRP, OD450; remark: listed apart in the source
[24] = molecular target: T2, VEGF-B; test: ELISA, VEGF-B coated, anti-human Fc-HRP, OD450; remark: listed apart in the source
[25] = molecular target: T4, VEGF-C; test: blocking ELISA: His-VEGF-C premixed with sample, binding to coated VEGFR2-Fc read with anti-His-HRP; remark: listed apart in the source
[26] = molecular target: T3, VEGF-D; test: blocking ELISA: His-VEGF-D premixed with sample, binding to coated VEGFR2-Fc read with anti-His-HRP
[27] = molecular target: T3, VEGF-D; test: as above; remark: listed apart in the source
Procedure: as §1

[28] = molecular target: T5, VEGF-A165; test: blocking ELISA: His-VEGF-A165 premixed with sample, binding to coated VEGFR2-Fc read with anti-His-HRP
[29] = molecular target: T5, VEGF-A165; test: as above; remark: listed apart in the source
[30] = molecular target: T5, VEGF-A165; test: blocking ELISA: His-VEGF-A165 premixed with sample, binding to coated VEGFR1-Fc read with anti-His-HRP
[31] = molecular target: T5, VEGF-A165; test: ELISA, VEGF-A165 coated, anti-human Fc-HRP, OD450
[32] = molecular target: T10, VEGF-A 121 (UniProt P15692-9 27-147); test: ELISA, VEGF-A 121 coated, anti-human Fc-HRP, OD450
T10 construct: Bought reagent
T10 sequence (looked up): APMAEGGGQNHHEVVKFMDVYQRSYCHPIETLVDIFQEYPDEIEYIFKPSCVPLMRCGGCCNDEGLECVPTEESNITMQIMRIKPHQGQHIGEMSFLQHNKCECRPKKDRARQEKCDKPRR

B1: LFV-M Recombinant receptor molecule (Fc fusion)
chain: GRPFVEMYSEIPEIIHMTEGRELVIPCRVTSPNITVTLKKFPLDTLIPDGKRIIWDSRKGFIISNATYKEIGLLTCEATVNGHLYKTNYLTHRQTNTIIGGGGSGGSPFIASVSDQHGVVYITENKNKTVVIPCLGSISNLNVSLCARYPEKRFVPDGNRISWDSKKGFTIPSYMISYAGMVFCEAKINDESYQSIMYIVVVVGYRIYDVVLSPSHGIELSVGEKLVLNCTARTELNVGIDFNWEYPSSKHQHKKLVNRDLKTQSGSEMKKFLSTLTIDGVTRSDQGLYTCAASSGLMTKKNSTFVRVHEKGPG[here human IgG1 Fc without letters]
notes: expressed in CHO cells
With B1 the EC50 [1] was 0.0439 µg/mL, the EC50 [2] was 0.182 µg/mL and the EC50 [3] was 5.62 nM. For the same binder, the EC50 [4] was 27.6 nM, the EC50 [5] was 2.17 nM and the EC50 [6] was 2.74 nM. For the same binder, the EC50 [7] was 7.8 nM, the EC50 [8] was 2.65 nM and the EC50 [9] was 3.14 nM. The EC50 [10] was 1.6 nM, the EC50 [11] was 0.47 nM and the EC50 [12] was 0.365 nM. It also gave an EC50 [13] of 1.35 nM, an EC50 [14] of 1.51 nM and an EC50 [15] of 12.8 nM.

B2: LFV-R Recombinant receptor molecule (Fc fusion)
chain: B1 chain with N229Q
In the case of B2, the EC50 [1] is reported as 0.032 µg/mL, the EC50 [2] is reported as 0.126 µg/mL and the EC50 [16] is reported as 11.9 nM. For the same binder, the Kd [17] was 506 nM, the koff [17] was 0.00111 s⁻¹ and the kon [17] was 2190 M⁻¹ s⁻¹. The Kd [18] was 91.7 nM, the koff [18] was 0.00144 s⁻¹ and the kon [18] was 15700 M⁻¹ s⁻¹. For the same binder, the Kd [19] was 4.34 nM, the koff [19] was 0.000222 s⁻¹ and the kon [19] was 51200 M⁻¹ s⁻¹. The Kd [20] was 90.2 nM, the koff [20] was 0.000847 s⁻¹ and the kon [20] was 9380 M⁻¹ s⁻¹. The EC50 [3] was 4.93 nM, the EC50 [7] was 6.97 nM and the EC50 [8] was 1.9 nM. For the same binder, the EC50 [21] was 0.273 nM, the EC50 [12] was 0.267 nM and the EC50 [22] was 0.065 nM. For the same binder, the EC50 [14] was 1.05 nM and the EC50 [15] was 13.4 nM.

B3: LFV-Q Recombinant receptor molecule (Fc fusion)
chain: YVQDYRSPFIASVSDQHGVVYITENKNKTVVIPCLGSISNLNVSLCARYPEKRFVPDGNRISWDSKKGFTIPSYMISYAGMVFCEAKINDESYQSIMYIVVVVGYRIYDVVLSPSHGIELSVGEKLVLQCTARTELNVGIDFNWEYPSSKHQHKKLVNRDLKTQSGSEMKKFLSTLTIDGVTRSDQGLYTCAASSGLMTKKNSTFVRVHEKGGGGSGRPFVEMYSEIPEIIHMTEGRELVIPCRVTSPNITVTLKKFPLDTLIPDGKRIIWDSRKGFIISNATYKEIGLLTCEATVNGHLYKTNYLTHRQTNTIIGPG[here human IgG1 Fc without letters]
B3 showed an EC50 [16] of 17.1 nM, a Kd [17] of 10.4 nM and a koff [17] of 0.000442 s⁻¹. It also gave a kon [17] of 42600 M⁻¹ s⁻¹, a Kd [18] of 122 nM and a koff [18] of 0.00362 s⁻¹. The kon [18] was 29600 M⁻¹ s⁻¹, the Kd [19] was 68.5 nM and the koff [19] was 0.0017 s⁻¹. The kon [19] was 24800 M⁻¹ s⁻¹, the Kd [20] was 99.3 nM and the kon [20] was 21600 M⁻¹ s⁻¹. It also gave an EC50 [21] of 0.3 nM, an EC50 [23] of 0.21 nM and an EC50 [12] of 0.544 nM. It also gave an EC50 [22] of 0.089 nM, an EC50 [24] of 1.6 nM and an EC50 [14] of 1.67 nM. It also gave an EC50 [25] of 7.2 nM, an EC50 [26] of 1.06 nM and an EC50 [15] of 14.6 nM. The EC50 [27] was 5.02 nM, the EC50 [28] was 1.65 nM and the EC50 [29] was 4.32 nM. It also gave an EC50 [30] of 8.11 nM.

B4: LFV-A (Fc fusion)
Fc fusion chain: YVQDYRSPFIASVSDQHGVVYITENKNKTVVIPCLGSISNLNVSLCARYPEKRFVPDGNRISWDSKKGFTIPSYMISYAGMVFCEAKINDESYQSIMYIVVVGPG[here human IgG1 Fc without letters]
notes: also called LFV-A Recombinant receptor molecule
B4: no binding (tested: log10 3 (1000 ng/ml)) [31]; no binding (tested: log10 3 (1000 ng/ml)) [32].
